± gives the standard deviation of the averaged measurements. This is one part of the list.

This test concerns PfAP2-G AP2 domain (GST-tagged). Put plainly: gcPBM binding intensity (ln(normalized median fluorescence intensity)); higher = stronger DNA binding. In outline:
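Alexa488 anti-GST antibody, scanned at 488 nm, detected GST-tagged P. falciparum DNA-binding domains that had been expressed in E. coli and incubated for 1 h on an Agilent 4 × 180k array. The array carried primer-extended double-stranded 36-bp intergenic genomic probes and negative controls. Binding intensity is the highest Masliner-normalised natural-log median intensity across replicate spots of either orientation of each probe.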
Regarding “TGAGTATTTTTTTAATGTACTTATATTAAAAGGAAA [XGTACX_site6286]”, the “gcPBM binding intensity (ln)” value came out at 11.2 ± 0.9.

Regarding “AATATAAATTAATTTACACACTAAAAAATATTTATA [CACACA_site7728]”, the “gcPBM binding intensity (ln)” value amounted to 10.01 ± 0.021.

As for “ACATACTTTAATATATGTACATAAGAAAAAAAAAAA [XGTACX_site2991]”, the “gcPBM binding intensity (ln)” value was determined as 11.5 ± 0.74.

With “TATACTAAAAAATACACATGCACATACAATATATAT [TGCATGCA_site1016]”, the “gcPBM binding intensity (ln)” value turned out to be 10 ± 0.13.

As to “TATAAGAATGACAAGTGTACATATCAAATATATTAG [XGTACX_site7113]”, the “gcPBM binding intensity (ln)” value turned out to be 11.3 ± 0.83.

As to “TATTTTTTATATTTATTTATTTAAAGGAGCTTTTCT [GTGCAC_negctrl_site293]”, the “gcPBM binding intensity (ln)” value amounted to 9.585 ± 0.092.

In the case of “TTTCTTTTTTTTTAATGTACTTTTTTTATAAAAGGT [XGTACX_site5688]”, the “gcPBM binding intensity (ln)” value turned out to be 11.5 ± 0.97.

For “TTTTTTCTTAAAATTTGTACATAGTGCAATTTTTTT [XGTACX_site5509]”, the “gcPBM binding intensity (ln)” value came out at 10.6 ± 0.45.

As to “TCCTCTTCAATATATATATATTATAAATAAATAAAT [CACACA_negctrl_site1756]”, the “gcPBM binding intensity (ln)” value came out at 9.91 ± 0.38.

Regarding “ATTATTACACAACGTTGTACATTTCAATATTTTTAT [XGTACX_site5096]”, the “gcPBM binding intensity (ln)” value stood at 11.1 ± 0.61.

For “AAAATAATATATAATTGTACTTTTTTTTTATATATA [XGTACX_site6093]”, the “gcPBM binding intensity (ln)” value is 11.3 ± 0.86.

As to “TTTTTTTATAGCTAAACACACATAAGAATATATGTT [CACACA_site1099]”, the “gcPBM binding intensity (ln)” value amounted to 9.73 ± 0.13.

Regarding “TGTACATATATATATATAATAATAGTTATGTTTATT [CACACA_negctrl_site1474]”, the “gcPBM binding intensity (ln)” value stood at 10.4 ± 0.35.

As for “TATTAACACTTTATAGAAACAAAAAAATAAGCAAAA [XGTACX_negctrl_site295]”, the “gcPBM binding intensity (ln)” value amounted to 9.9 ± 0.071.

In the case of “TTTGAATTTTTTAACACACACATGTGTGGATATATA [CACACA_site6872]”, the “gcPBM binding intensity (ln)” value was determined as 10.2 ± 0.33.

Regarding “TTTTTAAAAAAGATAAGCGAAAGAATTAATTTTTAA [GTGCAC_negctrl_site197]”, the “gcPBM binding intensity (ln)” value turned out to be 9.99 ± 0.13.

For “TATGTATAAATATATGCACACATATATATATTTATA [CACACA_site9150]”, the “gcPBM binding intensity (ln)” value amounted to 9.98 ± 0.3.

Take “AAATTTATATAATATTGTACATTAAAAATTATATAT [XGTACX_site8009]”: the “gcPBM binding intensity (ln)” value was found to be 11 ± 0.57.

Consider “TGGGTAATACATAATACACACATGTATATGTCGCAT [CACACA_site1125]”, for which the “gcPBM binding intensity (ln)” value is 9.995 ± 0.092.

“AGTATATATACACAAGGGGAATACATATACAAAATT [TGCATGCA_negctrl_site244]”: the “gcPBM binding intensity (ln)” value was 9.98 ± 0.085.

In the case of “TATATATATATAATGTGTACACAAATATATATTATA [XGTACX_site8786]”, the “gcPBM binding intensity (ln)” value amounted to 11.7 ± 1.1.

In the case of “AGGTAAAATATACATTGTACATATAATTAATTTATT [XGTACX_site626]”, the “gcPBM binding intensity (ln)” value was found to be 10.9 ± 0.57.

As to “AAGTTGTATATTGATTGTACTTGTTTAGGGTTATAG [XGTACX_site2953]”, the “gcPBM binding intensity (ln)” value was found to be 11.2 ± 0.73.

Take “ATATATATAATAAACACACACATATACATATATGTA [CACACA_site3462]”: the “gcPBM binding intensity (ln)” value turned out to be 9.97 ± 0.071.

As to “TTTTTATATTTTATTATTTTTTTTATATAAAAAATT [CACACA_negctrl_site601]”, the “gcPBM binding intensity (ln)” value turned out to be 10.1 ± 0.19.

“TTTATATATAAATAATGTACAAAAAATTTTAAAAAG [XGTACX_site7990]”: the “gcPBM binding intensity (ln)” value is 10.9 ± 0.41.

For the sequence “ATAAAAATATTTGAATGTACTTATAAGATATATATA [XGTACX_site4257]”, the “gcPBM binding intensity (ln)” value was found to be 11.2 ± 0.73.

For “GTAAAACAGATTTACAGTACACATGTGTTATGTTTT [XGTACX_site2933]”, the “gcPBM binding intensity (ln)” value was 11.2 ± 0.82.

Take “GTTCATAAATTAAACACACACACACGGCTGGATACC [CACACA_site7545]”: the “gcPBM binding intensity (ln)” value was found to be 10.7 ± 0.54.

On to “AGGTAGAAAAAAGACACACACATTAGATATTTATAT [CACACA_site6313]”, for which the “gcPBM binding intensity (ln)” value turned out to be 10.01 ± 0.071.

On to “AAATCGTGCACGGACACATGCAGTAGCCGAGAATTA [TGCATGCA_site733]”, for which the “gcPBM binding intensity (ln)” value came out at 11.1 ± 0.75.

On to “TGTTTATTTATTTGTGTGCACTCAGATTATATTATA [GTGCAC_site9510]”, for which the “gcPBM binding intensity (ln)” value was found to be 10.5 ± 0.35.

For “GATGTATTCATACATGCACACGTACATATTTAAATA [CACACA_site9299]”, the “gcPBM binding intensity (ln)” value stood at 11.4 ± 0.88.

Regarding “TATTTTAATTTTTGTTGTACGCAAATGTGAGGGCAT [XGTACX_site4663]”, the “gcPBM binding intensity (ln)” value came out at 11.7 ± 1.2.

Consider “TAAACCAAAAAAAGTAGTACAAATATTATAAAAAAA [XGTACX_site8497]”, for which the “gcPBM binding intensity (ln)” value turned out to be 11.6 ± 0.74.

Take “GTTCAAATTATTATGTGTACTAAAGAATATTTTAAA [XGTACX_site3166]”: the “gcPBM binding intensity (ln)” value was determined as 11.2 ± 0.86.

As to “AGGAAAAATAATTATTCACACAATAAATATATTTGA [CACACA_site5824]”, the “gcPBM binding intensity (ln)” value was 9.71 ± 0.18.

Turning to “AATTAATTTATGTTACGTACATAAGTATTATATTTT [XGTACX_site388]”, the “gcPBM binding intensity (ln)” value is 11.5 ± 0.87.

For “TCTATTTTTTATATGGTGCATTGTTCTTATTAATAT [GTGCAC_site9392]”, the “gcPBM binding intensity (ln)” value stood at 10.3 ± 0.19.

Take “CTTTATTTTTTATACACACACAATATGTATTTATAT [CACACA_site5879]”: the “gcPBM binding intensity (ln)” value was 10.21 ± 0.014.

Regarding “AAAAACCTGAACTGTGCATGTCATACTTTTACTTTT [TGCATGCA_site73]”, the “gcPBM binding intensity (ln)” value was 9.91 ± 0.12.

For the sequence “TATATATGTGTATAGAGTACACGTTTTTTTTAATAT [XGTACX_site3128]”, the “gcPBM binding intensity (ln)” value was found to be 11.4 ± 0.85.

On to “TTGTACAAAAATAATGCACACTATATCAAGTTTTTT [CACACA_site5898]”, for which the “gcPBM binding intensity (ln)” value came to 10.5 ± 0.24.

Consider “TTTATAAATTCTCTTTTTAAAAAATATTTTTATACT [CACACA_negctrl_site427]”, for which the “gcPBM binding intensity (ln)” value worked out at 9.69 ± 0.37.

In the case of “TAATCATTTTAGCTTACACACAAAATTTTGTTATAA [CACACA_site2939]”, the “gcPBM binding intensity (ln)” value worked out at 9.875 ± 0.035.

Values taken from the supplement of paper PMC11417369.
